Laboratory results from the RNAGym collection of RNA variant scans (doi:10.7554/elife.90254).
Read counts are not given, so values of variants with three or more changes are uncertain.

B1: LINE1-mini (parent)
chain: GGCAGAGCUCAACACAGCGUGGCAAAGUGGCUGUGGCUAGACUGCC

Variants of: B1
Assay: self-cleavage, relative activity (ratio to wild type); higher = more cleavage; in vitro, sequencing; the parent is a self-cleaving ribozyme

Variant | self-cleavage
C8U G21C A26U C46G | 0.09
C8U A24G G27U U28G C31G | 0.03
C8G U20A G33U U43C | 0.01
C8G U20G C23U | 0.27
C8U G21A A25G | 0.42
C8U G21A A24G U28A C42A | 0.7
C8U C10U C15A A25U A26U | 0.02
C8U C10A G19A C23U G27C U32C | 0.02
C8U C15U U20A C23U | 0.7
C8U A26U G44U | 0.74
C8U G19U U38C C46U | 0.1
C8U C13A G44U | 0.09
C8U C13U A14C G21U G40A | 0.02
C8U G17A U28G A41U | 0.26
C8U C15G G33U C37U U38G | 0.04
C8U G19A C31A | 0.15
C8U G19A C31U | 0.13
C8U G21U C31U | 0.19
C8U A16U A24U G36C | 0.1
C8G U9A G27C | 0.04
C8U C15U U20A | 0.96

Variant | self-cleavage
C8U C10U A41C C42A | 0.04
C8U G19U C46A | 0.29
C8G U9G G35A | 0.16
C8U A11U U28A G35C | 0.02
C8U C15A G19A | 0.03
C8U C10A A41G | 0.03
C8U C15A G17A C18U C42A | 0.02
C8U G21U U28A | 0.03
C8U G21U G29U C37A A41U C42A | 0.14
C8G U28G G36U G44C | 0.04
C8U C13U C18G A25G C45G | 0.1
C8U A25G G29U U34C | 0.05
C8U C31A G36U | 0.45
C8U C15A A16C | 0.04
C8U A14G G19U G30A C46U | 0.02
C8U A14U G17A U32A | 0.04
C8U C13U G44A | 1.38
C8U C13A C31U G44A | 0.03
C8U G17C A25C C31U | 0.04
C8U G19A G44A | 0.3
C8U C10U C23U U34C U43C C45U | 0.02

Variant | self-cleavage
C8U A12U A14G G27C A41G | 0.02
C8U C15U U20C C45A | 0.45
C8U C18U U28C | 0.17
C8U A12C C18A C42U | 0.06
C8U C15G G30A | 0.07
C8U C23A U38G | 0.02
C8U C23A U38A | 0.11
C8U A16C U28C G29C G33U | 0.18
C8U C23A A41U G44A | 0.52
C8U C10A C31U G36C | 0.02
C8U A12C C15U C18G C23G C31A | 0
C8U C13U G27U | 0.33
C8U A12U C18U | 0.13
C8U A24C G27C A39U U43A | 0.03
C8G U20A A25U | 0.16
C8U C18A G21U G22A G30A C42U | 0.22
C8G U20A C31A G44C | 0.01
C8U C13U G19C A25C C37U | 0.05
C8U C23U G27A U32C | 0.15
C8U C15A G30C | 0.3
C8U A39C C45U | 0.25

Variant | self-cleavage
C8U G21C G30C A39G | 0.04
C8U A25C G33C | 0.03
C8U A26G A41C | 0.16
C8U C13U A14U | 0.26
C8U C18G A25G | 0.13
C8U A12G G21A | 0.03
C8U C10U C23G G27C G40A | 0.03
C8U C13U G17A G29C C42A | 0.27
C8U C42U C45U C46A | 0.04
C8U C37A G40A | 0.08
C8U A12G U20G C31U G33A | 0.08
C8U C15G A16U G33U | 0
C8U A16G U34C U38A U43C | 0.04
C8U A24U U32A | 0.29
C8U G17A G27U G36C C42U | 0.08
C8U G21U C45U | 0.05
C8G U9A C42U | 0.03
C8U C13A C15A G17A G27A | 0.27
C8U C10U G44U C45G | 0.03
C8G U9C A11U A24U G27C C45U | 0.01
